Experimental data: the supplement of paper PMC10986608
Some of the results follow. Single values are uncertain, as repeats are few or missing.

These molecules were tested on Candida albicans DPL-15 (assay: growth (OD600) after compound treatment (apparently relative to screen median) (relative growth (fraction; screen median 1.02)); DPL-15 is a caspofungin-resistant clinical isolate; higher = more fungal growth (less antifungal activity)). Conditions: 25 µM; RPMI 1640; 48 h; 30 °C.

| Compound | growth |
| --- | --- |
| CC(C)C1=NCCNC2=C1C(c1ccc(Br)cc1)N(Cc1ccccc1)C2=O (centres undefined) | 1.05 |
| COc1ccc(N2C(=O)c3[nH]nc(CC(C)C)c3C2c2ccc(OC)nc2)cc1 (centres undefined) | 1 |
| C=CCN1C(=O)C2=C(C(c3ccccc3)=NCCN2C)C1c1ccc(C)cc1 (centres undefined) | 1 |
| COC(=O)C1=C(C)N(C)C(=O)N(C(C)=O)C1c1ccccc1 (centres undefined) | 1.03 |
| C[C@@H]1/C=C/CC(=O)OCc2ccccc2CC(=O)N[C@@H]1c1ccccc1 | 1 |
| COc1ccccc1Cn1nc(C(C)C)c2c1C(=O)NC2c1ccc(C)cc1 (centres undefined) | 0.97 |
| C#CCC(C)(C)CNC(=O)CC(CNC(=O)c1cccc(/C=N/NS(=O)(=O)c2ccc(C)cc2)c1)c1ccccc1 (centres undefined) | 1.2 |
| Cc1ccc2c(c1)[C@]1(C(=O)N2C)C2=C(CCCC2=O)Oc2cc(C)oc(=O)c21 | 1.03 |
| Cc1ccc(C2c3c(nn(C)c3-c3ccccc3)C(=O)N2c2ccccc2)cc1 (centres undefined) | 0.88 |
| COc1ccc(N2C(=O)c3[nH]nc(CC(C)C)c3C2c2cc(F)nc(F)c2)cc1 (centres undefined) | 0.974 |
| CC(O)c1nnc(C(=O)NCc2ccccc2)c2[nH]c3ccccc3c12 (centres undefined) | 1.19 |
| COCO[C@@H]1CC[C@H](O)C(C(=O)OC)=C1Oc1cc(O)cc(OC)c1 | 0.991 |
| CC(=O)C1=C(C)N(Cc2ccc(Br)cc2)C(=S)NC1c1cccc(Cl)c1 (centres undefined) | 0.92 |
| CC1=C[C@@H](COc2ccc(Br)cc2)O[C@@]2(C1)C(=O)N(C)c1ccccc12 | 0.915 |
| COCOc1cc(OC)cc(O)c1C(=O)[C@@H]1CC=C(CCC=C(C)C)C[C@H]1c1cccnc1 | 0.944 |
| O=C(O)/C=C/c1ccc(O)c(O)c1 | 1.09 |
| C#C[C@@H]1C=C[C@H](Oc2ccc(OC)cc2)[C@@H](CO)O1 | 1.05 |
| CCc1ccccc1-n1nc(C(C)C)c2c1C(=O)NC2c1ccc(Br)cc1 (centres undefined) | 0.931 |
| CC1=C[C@H]2c3c(c(O)c(O)c4oc5cc(O)ccc5c(=O)c34)[C@H](c3cc(O)c(O)c4oc5cc(O)ccc5c(=O)c34)[C@H]2C(C)(C)C1 | 2.22 |
| COc1ccc(N2C(=O)C(Nc3ccc4c(c3)OCO4)=CC2c2ccc3c(c2)OCO3)cc1 (centres undefined) | 0.942 |
| COC(=O)[C@@H](Cc1ccccc1)N1C[C@@]2(O)CC[C@@H](O)[C@@H](OC)[C@@H]2[C@@](C)(O)[C@@H]1CC=C(C)C | 1.05 |
| COC(=O)[C@]1([C@H]2CCC(=O)O2)CC(=O)c2c(O)c(Cl)cc(Cl)c2O1 | 1.06 |
| Cc1ccc(CCC(=O)/C=C(\O)CCc2ccc(C)cc2)cc1 | 0.987 |
| Cc1cc2c(c(=O)o1)[C@@]1(C(=O)N(C)c3cc(Br)ccc31)C1=C(CCCC1=O)O2 | 1.12 |
| C=C(C)C1[C@H](c2cc(OC)c(O)c3oc4cc(OC)cc(O)c4c(=O)c23)C=C(C)C[C@H]1c1cc(OC)c(O)c2oc3cc(OC)cc(O)c3c(=O)c12 (some centres undefined) | 1.11 |
| CC(C)CCCN(C(=O)OC(C)(C)C)S(=O)(=O)NCC(F)(F)F | 1.04 |
| COc1ccc(OC)c(N2C(=O)c3[nH]nc(CC(C)C)c3C2c2ccc(F)cc2)c1 (centres undefined) | 1.15 |

| Compound | growth |
| --- | --- |
| COc1cc([C@H]2c3c(OC)c(O)c4cc(-c5ccccc5)oc(=O)c4c3[C@@H]3C=C(C)CC(C)(C)[C@H]23)c2c(=O)oc(-c3ccccc3)cc2c1O | 1.09 |
| O[C@H](CC#CCOc1ccccc1)COCc1ccccc1 | 0.906 |
| COc1ccc(OC)c2c1CCN(CCc1ccc(NC(=O)c3cccc4c(=O)c5cccc(OC)c5[nH]c34)cc1)C2 | 1.01 |
| COC(=O)C/C=C/[C@@H](C)[C@H](NC(=O)C1CCCN1)c1ccccc1 (some centres undefined) | 1.11 |
| COCOc1cc(OC)ccc1C(=O)/C=C/c1ccc2c(c1)OCO2 | 0.864 |
| COc1ccc(N2C(=O)c3nn(C)c(C(C)C)c3C2c2ccccc2)cc1 (centres undefined) | 1.03 |
| COc1ccc(N2C(=O)C3=C(C(c4ccccc4)=NCCN3)C2c2ccc3c(c2)OCO3)cc1 (centres undefined) | 0.959 |
| COC(=O)c1cc(O)c(Cl)c(OC)c1 | 1.12 |
| COc1ccc(CO/N=C2\CCCC/C=C/CCOC(=O)c3c(O)cc(O)cc3C2)cc1 | 1.06 |
| C=CC[C@]1(C)[C@H]2[C@H]3c4ccccc4[C@]([C@@H](COC)OC)(c4ccccc43)[C@H]2C(=O)N1C | 1.01 |
| COc1ccc(CC(=O)NC(C)=O)cc1OC | 1.09 |
| COc1ccc2ccccc2c1-c1c(OC)ccc2ccccc12 | 1 |
| C[C@@H](O)Cn1nc2cc1COC[C@H](c1ccccc1)NC(=O)CC1(CCCCC1)CNC(=O)c1cccc-2c1 | 1.96 |
| CS(=O)(=O)Oc1c(CC23CCCCC2=Nc2ccc(Br)cc23)occc1=O (centres undefined) | 0.948 |
| Nc1cc(-c2ccc(F)cc2)ccc1O | 1.09 |
| COc1ccc2c(c1)[C@@H](NC(=O)C(F)(F)F)[C@@H]1CCCC[C@]21c1ccccc1 | 1.02 |
| Cc1nn(C)c(C)c1Nc1cc(O)cc(O)c1C(=O)N1CC[C@@H](F)C1 | 1.28 |
| CCOC(=O)C1=C(C)NC(=O)NC1c1cccc(C)c1 (centres undefined) | 0.93 |
| CS(=O)(=O)Oc1c(CC23CCCCC2=Nc2cc(Cl)cc(Cl)c23)occc1=O (centres undefined) | 1.02 |
| O=C1C2=C(C(c3ccccc3)=NCCN2)C(c2ccc(F)cc2)N1Cc1ccccc1 (centres undefined) | 0.943 |
| Cc1ccccc1S(=O)(=O)N1CCCc2nc(-c3ccc(Br)cc3)ccc21 | 0.932 |
| COc1cc(O)c(C(=O)[C@@H]2CC=C(C)C[C@H]2c2ccsc2)c(O)c1 | 1.06 |
| COC(=O)[C@]1([C@@H]2OC(=O)C=C2C)CC(=O)c2c(O)cccc2O1 | 1.02 |
| CC1=C[C@]23O[C@H]2C(=O)[C@H]2O[C@H]2[C@]3(O)[C@@H]2CCC3(OCCO3)[C@@]2(O[Si](C)(C)C)C1 | 0.89 |
| CC(=O)C1=C2C=CCCN2C(=O)NC1c1ccccc1C (centres undefined) | 1.15 |
| CCOC(=O)C1(C(=O)OCC)Cc2cnc(-c3ccccc3)cc2C1 | 1.09 |
| CC1=NCCNC2=C1C(c1cccc(C(F)(F)F)c1)NC2=O (centres undefined) | 1.02 |

| Compound | growth |
| --- | --- |
| C=CCOc1c(C)c(C)c(C(=O)OC)c(O)c1C | 1.23 |
| COC(=O)c1c(O)c(C)c(O)c(C)c1O | 1.01 |
| CC1(C)Cc2cc3cccc4n3c2N(C1)C(=O)[C@@H]1C[C@@H](O)CN1C4=O | 0.903 |
| COc1cccc(N2C(=O)c3[nH]nc(CC(C)C)c3C2c2ccccc2Cl)c1 (centres undefined) | 1.05 |
| COc1ccc(N2C(=O)c3[nH]nc(CC(C)C)c3C2c2ccc(Br)cc2)cc1 (centres undefined) | 0.969 |
| C=CCN1C(=O)C2=C(C(C(C)C)=NCCN2)C1c1ccc(C)cc1 (centres undefined) | 1.05 |
| COC(=O)c1c(-c2ccccc2)c2c(c3c4ccccc4n(S(=O)(=O)c4ccc(C)cc4)c13)C(=O)N(C)C2 | 1.04 |
| C=CC[C@@H](O)COc1cc2c(cc1C1(c3cc4c(cc3OC[C@H](O)CC=C)OCO4)C(=O)Nc3cc(Br)ccc31)OCO2 | 0.985 |
| CC(=O)OC[C@@H]1O[C@H](C#Cc2ccc(C(C)(C)C)cc2)C=C[C@H]1OC(C)=O | 0.962 |
| CC1=C(C(N)=O)C(c2ccc(Cl)cc2)NC(=O)N1 (centres undefined) | 1.1 |
| COc1ccc([C@@]23Oc4cc(OC)cc(OC)c4[C@]2(O)[C@H](O)[C@H](C(=O)c2ccco2)[C@H]3c2ccccc2)cc1 | 0.786 |
| CC(C)OC(=O)[C@H](C)NC(=O)N1CCc2nc(-c3ccccc3)c3c(c2C1)CO[C@@H](C)C3 | 1.1 |
| CCOc1cc(N(C)C)ccc1C1CC(=O)Nc2cc3c(cc21)OCCO3 (centres undefined) | 1.2 |
| CC(C)c1c2c(nn1C)C(=O)NC2c1cccc(C(F)(F)F)c1 (centres undefined) | 0.984 |
| Cc1cc(C)cc(/C=C/[C@H]2c3c(C)cc(C)cc3CO[C@@H]2[C@H](O)CO)c1 | 0.919 |
| CO[C@@H]1[C@H](O)CC[C@]2(O)CN(c3ccc4c(c3)oc3ccccc34)[C@](C)([C@H](O)CC=C(C)C)[C@@H]12 | 0.98 |
| COC(=O)[C@]1(Cc2ccccc2)NC=C(C(=O)c2ccccc2)[C@@H]1c1cccc(C(F)(F)F)c1 | 1.04 |
| CC(C)OC(=O)[C@H](Cc1ccccc1)N[C@H](/C=C/c1ccccc1)[C@@H](O)Cc1ccccc1 | 1.32 |
| CCN1C(=S)NC(c2ccc(F)cc2)C(C(=O)OC)=C1C (centres undefined) | 0.917 |
| Cn1nc(-c2ccccc2)cc1N | 1.08 |
| CC(C)CC1=NCCN(C)C2=C1C(c1ccc(F)cc1)N(c1ccccc1)C2=O (centres undefined) | 1.07 |
| COc1ccc(Cn2nc(C(C)(C)C)cc2Nc2cc(O)cc(O)c2C(=O)N2Cc3ccccc3C2)cc1 | 0.973 |
| COC(=O)C1=C(C)N(Cc2cccc(C(F)(F)F)c2)C(NCc2ccc(C(F)(F)F)cc2)=NC1c1ccc(Cl)cc1 (centres undefined) | 0.811 |
| CNCC1CCCN(CCc2ccccc2)C1 (centres undefined) | 1.01 |
| CCCCNC1=NC(c2ccccc2)C(C(=O)OC)=C(C)N1Cc1ccc(C(F)(F)F)cc1 (centres undefined) | 0.958 |
